# Data published in PubChem BioAssay AID504832 (National Center for Advancing Translational Sciences (NCATS), 2011).
# Out of some 310,000 compounds screened, about 18,000 (5.8%) were called active. Inconclusive results, whose numbers are uncertain, are shown with a selection of clear calls. Calls come from the whole dose curve; as a rule, active = well fitted inhibition curve with a large enough effect; inconclusive = small, poorly fitted or top-dose-only effect, or another doubt; inactive = no such curve, though single readings can be large or run the other way. Potencies of inconclusive entries are left out as doubtful fits.
# Assay: Primary qHTS for delayed death inhibitors of the malarial parasite plastid, 48 hour incubation
# Conditions: P. falciparum luciferase growth in erythrocytes; series mostly up to 28.7 µM
# Outline: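 First compound was added to culture medium, then infected red cells at 0.1% parasitemia and 2% hematocrit (final). After incubation at 37 C under 5% CO2, luciferase detection reagent was dispensed and light output recorded.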
# Potency is the fitted concentration of half-maximal effect; tags give direction and shape of the fitted curve.
row,SMILES,Potency
1,CC(=O)Nc1sc(C)c(C)c1C(=O)OCC(=O)Nc1cc(S(=O)(=O)N2CCCCC2)ccc1Cl,"inconclusive [inhibitor, single point]"
2,Cc1onc(-c2ccccc2)c1C(=O)Nc1nc(-c2ccc(F)c(F)c2)cs1,"inconclusive [inhibitor, single point]"
3,CN(C)C1=NCCN1CC1CCCCCC1,"inconclusive [inhibitor, single point]"
4,CC(=NCCC1=CCCCC1)c1c(O)n(C)c(=O)n(C)c1=O,"inconclusive [inhibitor, single point]"
5,Cc1ccc(C)c(-n2c(SCC(=O)N3CCC(C(=O)O)CC3)nnc2-c2cccc(Cl)c2)c1,"inconclusive [inhibitor, single point]"
6,C/C=C(\C)CN1CCC(n2nccc2NC(=O)CCOc2ccccc2)CC1,"inconclusive [inhibitor, partial curve, poor fit]"
7,C/C(Cl)=C\Cn1c(NCCc2ccccc2)nc2c1c(=O)n(C)c(=O)n2C,active: 9.28 µM
8,N#Cc1c(NC(=O)C(=O)NCCCN2CCOCC2)sc2c1CCC2,"inconclusive [inhibitor, partial curve, poor fit]"
9,N#Cc1cccc(NC(=O)Cc2ccccc2)c1,inactive
10,O=C(O)CSc1ccc2nnc(-c3cccnc3)n2n1,"inconclusive [inhibitor, partial curve, poor fit]"
11,FC(F)(F)c1cnc(Nc2ccc(N3CCOCC3)cc2)c(Cl)c1,inactive
12,COc1cc2ncnc(NCc3ccccc3Cl)c2cc1OC,"inconclusive [inhibitor, single point]"
13,COc1ccccc1-n1cc(C(=O)NCC(=O)NCc2ccc(F)cc2)c2ccccc2c1=O,inactive
14,CC1CCCN(S(=O)(=O)c2ccc(C(=O)Nc3nnc(-c4ccco4)o3)cc2)C1 (stereo not drawn),active: 11.7 µM
15,COc1cccc(C(CNc2ccc(S(=O)(=O)N3CCN(C)CC3)cc2[N+](=O)[O-])N(C)C)c1 (stereo not drawn),"inconclusive [inhibitor, partial curve, poor fit]"
16,COc1ccccc1Nc1nc(N)nc(CN2CCN(c3ccccc3F)CC2)n1,"inconclusive [inhibitor, single point]"
17,O=C(O)CCN1C(=O)CC(N2C(=O)/C(=C/c3ccc(Cl)cc3)SC2=S)C1=O (stereo not drawn),inactive
18,Cc1ccc(NS(=O)(=O)c2ccc3c(c2)NC(=O)CCS3)cc1F,active: 9.28 µM
19,Cc1ccc(-c2ocnc2C(=O)Nc2nc(C)cs2)cc1,inactive
20,COc1ccc(OC)c(C(=O)COC(=O)c2[nH]c(C)c(C(C)=O)c2C)c1,"inconclusive [inhibitor, single point]"
21,O=C(CCN1C(=O)/C(=C/c2ccc(F)cc2)SC1=S)NC1C=CS(=O)(=O)C1 (stereo not drawn),"inconclusive [inhibitor, single point]"
22,COc1ccc2c(C(=O)CN(C)C3CCCCC3)c[nH]c2c1,"inconclusive [inhibitor, partial curve]"

row,SMILES,Potency
1,COc1c(OC(C)=O)ccc(/C=C/c2ccc3cccc(OC)c3n2)c1[N+](=O)[O-],"inconclusive [inhibitor, single point]"
2,O=C(N/N=C/c1ccnc2ccccc12)c1ccccc1O,"inconclusive [inhibitor, partial curve, poor fit]"
3,CCC[n+]1c(C)sc2c3c(ccc21)CCCC3,"inconclusive [inhibitor, full curve, poor fit]"
4,CCc1ccc(C(=O)/C=C/NCc2ccc(F)cc2)cc1,"inconclusive [inhibitor, single point]"
5,O=C(NCCc1cn2ccccc2n1)c1cc(COc2ccc3ncccc3c2)on1,"inconclusive [inhibitor, partial curve]"
6,C[n+]1c(-c2ccccc2)c2cc(N)ccc2c2ccc(N)cc21,"inconclusive [inhibitor, full curve]"
7,COc1ccccc1NC(NC(=O)c1cccnc1)C(Cl)(Cl)Cl (stereo not drawn),"inconclusive [inhibitor, partial curve, poor fit]"
8,COc1ccc(C2=NN(C(=O)COc3ncnc4ccccc34)C(c3ccco3)C2)cc1 (stereo not drawn),inactive
9,O=C(O)c1ccc(S(=O)(=O)N2CCN(c3ccccn3)CC2)cc1,inactive
10,O=C(COc1cc2oc(=O)c3c(c2cc1Cl)CCC3)N1C[C@H]2C[C@@H](C1)c1cccc(=O)n1C2,"inconclusive [inhibitor, partial curve, poor fit]"
11,C=CCc1cccc(CNc2nc3ccccc3n2C)c1O,"inconclusive [inhibitor, single point]"
12,CCN(CC(=O)Nc1ccc2c(c1)OCO2)Cc1nc2ccccc2c(=O)[nH]1,"inconclusive [inhibitor, single point]"
13,Cc1ccc(C2CCN(C(=S)NC(C)C)C2)cc1 (stereo not drawn),inactive
14,CCOC(=O)C1CCN(CC(=O)c2c(C)[nH]c3cc(C)ccc23)CC1,inactive
15,O=C(Nc1ccc2nc(-c3ccc(Br)o3)[nH]c2c1)c1ccco1,"inconclusive [inhibitor, single point]"
16,CC(=O)N1CCc2c(sc(NC(=O)C3CC3)c2-c2nc3ccccc3s2)C1,"inconclusive [inhibitor, single point]"
17,COc1ccc(N(CC(=O)Nc2ccccc2C(F)(F)F)C2=NC3CS(=O)(=O)CC3S2)cc1 (stereo not drawn),"inconclusive [inhibitor, single point]"
18,CCCCn1c(CCc2ccccc2)nc2cc3[nH]c(=O)c(C(C)C)nc3cc21,active: 3.7 µM
19,CN(C)c1ccc(NC(=O)c2cccc(C(=O)Nc3ccc(N(C)C)cc3)n2)cc1,"inconclusive [inhibitor, single point]"
20,CNc1nc(N/N=C/c2cc3c(cc2[N+](=O)[O-])OCO3)nc(Nc2ccccc2)n1,active: 2.62 µM
21,O=C(Cn1nc(Cl)nc1Cl)c1ccc(F)cc1,active: 11.7 µM
